The list shows a part of the results.
Each sequence was assayed on T1, Caupolican (Caup) homeodomain DNA-binding domain (assay: PBM E-score (8-mer, recovered from the published 9-mer minima) (E-score (dimensionless, -0.5 to 0.5)); Drosophila protein; higher = stronger relative binding preference, active = 0.31 or more).
T1 sequence: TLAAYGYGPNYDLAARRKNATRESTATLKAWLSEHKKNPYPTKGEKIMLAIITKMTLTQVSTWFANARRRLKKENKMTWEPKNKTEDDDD
How it was run: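 Caup's homeodomain DNA-binding domain (residues 214-303) was made by in vitro transcription and translation and applied at 100 nM to custom-designed protein binding microarrays. Each value is an enrichment score that gives relative binding preference for a short DNA word, with higher meaning stronger. The 8-mer values were recovered from published 9-mer scores, each of which was the minimum of its two constituent 8-mer scores. A cutoff of 0.31 marks candidate sites.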

PBM E-score, ≥ 0.126:
ATCACAGA

PBM E-score, ≥ 0.172:
TACTATCA

PBM E-score, active:
AACATATG ≥ 0.356
ACGTGTTA 0.33
CTACATGA 0.36
ACAATGTC 0.316

PBM E-score, ≥ -0.0606:
TCGGGTCA

PBM E-score, ≥ 0.173:
TTACGTAA

PBM E-score, ≥ 0.218:
ACAGTGTA

PBM E-score, ≥ 0.0674:
AAGGAAAA

PBM E-score, inactive:
AAGCTGCA -0.0901
AAGCCTCT -0.136
AAGGTGAG -0.107
AAGCACCC -0.131
CCGAATTA 0.00196
CACGGTTC 0.0169
ACTACGTC 0.021
GATCGTCC -0.0919
CTTGCCCC -0.243
ATATCTTC 0.0704
GAATGGGA -0.0755
TTGTTAAA 0.23
AGAACAGG 0.139
CATAATCC 0.0451
GCGCAGTA -0.0445
CTGAGGAC -0.0428
GGTGTCGA 0.0872
ACATCTGC 0.177
ACCTACCT -0.066
ATGACGCC -0.118
AAATATGA 0.164
ATCGAACG 0.045
GGCTAGCA -0.132
CCCGTGCG -0.175
CATGACCA 0.139
ACCAGATC -0.0112
CCTTGAGA -0.00291
CTATGCGA -0.0581
CCAATCAA 0.0187
AGGGTAAA 0.0667
ACATAGTA 0.28
AACTTAAT 0.145
AGGGCAAT -0.143
AAGGCGGC -0.113
CCAGTATC -0.0407
CGATCCTA -0.0295
AGGGAACC -0.191
GAGCTCGC -0.25
GAGTGTAA 0.11
ACAACGCG 0.0708
GGAACTAA -0.00107
AGCCAGAT -0.0819
AGGCAAAA -0.0175
CTGACGGC -0.217
AATTACGC 0.0512
ACAAGTTC 0.233
AGCTGTCG -0.00815
CCAATGAG -0.0766
TATACAAA 0.264
GTCGACAA 0.136
GCCGCTTA -0.0843
CCGAAGAG -0.165
GGGCGTGA -0.0887
ACCGAGAG -0.108
AACGGACC -0.0991
CCCGAGTA 0.0585
CCCCAAAC -0.0197
CCCTCTCA -0.192
ACTCGAAG -0.132
CCGAACCC -0.194
CGTGGGAG -0.161
CTTCCTAA -0.082
CCGCACTA -0.0633
ATATGTCC 0.261
ACCCCCAT -0.133
AAAACAGA 0.113
CGCTCGCA -0.211
GTCAGCAC 0.00175
CTTGATAA 0.124
GCCACGAA -0.0867
ATACTTTC 0.0528
ACTCTGTC 0.0558
GTTTCGCA -0.0304
CATATACC 0.0932
GGGGCAGA -0.108
ACCCGCGT -0.0456
ACGCACCA -0.123
AATCACTC 0.0003
CATTCTAA 0.106
ATCAGAGA 0.0799
CCTGCTGC -0.187
ACTAAGCA 0.0953
AGGTTTCA -0.0675
ACTGAGTG 0.0234
GAAGTGTC 0.0825
ACGGGAAC -0.00669
ATTGTTCA 0.184
GACTTTAC 0.0268
CTAGGCGA -0.21
AGCGTTAA -0.0912
AGATAGCA 0.0249
AGAAGGAA -0.102
CGATTGAA 0.0347
TAGCGCGA -0.0603
AGGCCACG -0.233
CTGTTTGC 0.181
CGATAGTA 0.0419
AGAACGAA 0.0411
CGAGCATC -0.113
AGCCGTAC -0.0277
CGCGCCGA -0.147
CCCGGCCA -0.28
GATAAGAA 0.164
TGAAGACA 0.11
TCTGGGCA -0.175
ACAAACAG 0.258
AGCCGACT -0.151
CAAGTCTC -0.0163
CAGCTGCA -0.118
AGCCCTTC -0.22
CAACTAAG -0.0428
GCTGCGCC -0.25
AAAGGTAT 0.0107
AGCAGTCG -0.15
AGCCACCC -0.218
ACCGAAAT 0.0167
AGCATAAA 0.0864
GAACCAAA -0.0466
ACGTCCAC -0.0264
CGTTCTCC -0.0158
AGATCAGA 0.0577
CGGATACC 0.0289
ACCTAAGC -0.044
ACGTTAAG 0.0104
ACTGATAG 0.14
TGCCACCA -0.123
AGTAGGAC 0.0204
ATCTAACG -0.014
AGAAGCAC -0.0814
CGGACCGC -0.201
AATCTAGA 0.0328
GGTGCTCA -0.0513
AAAAACGC -0.00468
AGATGACG -0.0203
AGAGCGAC -0.0105
CCTATGAG -0.0426
AAGACGTC -0.0532
CCCTCGAG -0.151
AGTTGCGA 0.0916
AACTGTCA 0.142
ACCTGCAG -0.0444
AGCTAGTC 0.0414
CATCTCGC -0.141
ACAATGCG 0.113
ACCCTTGA -0.102
GAGTTGCC -0.0641
ACTCCAAG 0.0284
ACGGTAAA 0.0192
TAAAGTGA 0.0599
GAAGTGCA -0.0221
AGTGGGGC -0.245
GTCTAGCA 0.0138
TTTGCAAA -0.0107
TCACGTCA 0.0383
GCCCTAGC -0.208
CATATTTA 0.178
CCGCGGTC -0.225
GCGGTCAA -0.0861
AAGATAAT 0.0663
CAATGCAG 0.00205
AGCGCAGC -0.235
CTTACAGA 0.0591
AGATAAGA 0.105
CTAATCGA 0.0915
ACTCTGAA 0.0341
AATACCGA 0.0108
CGTGACTA 0.0993
ACAGGCAC 0.0139
CAGTCAAA 0.0235
TATGGCGA -0.116
CCCGATGA -0.0958
ATAGAGAA 0.0414
CACTTGAA 0.106
AAACGCTT -0.0575
TCTTAACA 0.218
CGCATAGA -0.101
CGAGACGC -0.134
AATACATT 0.225
AGTTAACC 0.074
AGGAGCAT 0.0589
AGCCAGTG -0.00949
AAGCGTGT 0.265
AGTTGTTA 0.266
ATCCGCCG -0.134
CGCTATAA 0.0278
ATTACTCA 0.112
ACTATGCC 0.0286
AGTACTAT 0.165
CCAAATGC -0.0451
AAAAGTGG -0.0248
AACACTCT 0.154
CCCTGCGG -0.29
CGCAGACG -0.103
AGTCCTCA -0.108
CAAGTACG 0.116
CATAGGTC 0.0256
GGGCCCCA -0.304
AGAAGCCC -0.196
AAGGTCCA -0.0688
GTGTTGAA 0.126
ATTGAATG 0.137
GACCGATC -0.0828
ATTCGCGC -0.00589
CCGTCGTC -0.127
GGGCCACA -0.194
CCGCGCAG -0.218
CCGTATCG -0.11
CGCTTAAC 0.0619
CAGACGAG -0.0333
CCCTACTC -0.0728
AGTGACAC 0.198
AATCTACA 0.27

PBM E-score, ≥ 0.0523:
ATCCTGCA
